The full ranking holds about 33,000 sequences; the median of “E-score (-0.5 to 0.5)” is about -0.016, and the highest 2% start at about 0.32. This is one part of the list.
Target: T1, Stp1 (UniProt B3LFK1)
T1 sequence: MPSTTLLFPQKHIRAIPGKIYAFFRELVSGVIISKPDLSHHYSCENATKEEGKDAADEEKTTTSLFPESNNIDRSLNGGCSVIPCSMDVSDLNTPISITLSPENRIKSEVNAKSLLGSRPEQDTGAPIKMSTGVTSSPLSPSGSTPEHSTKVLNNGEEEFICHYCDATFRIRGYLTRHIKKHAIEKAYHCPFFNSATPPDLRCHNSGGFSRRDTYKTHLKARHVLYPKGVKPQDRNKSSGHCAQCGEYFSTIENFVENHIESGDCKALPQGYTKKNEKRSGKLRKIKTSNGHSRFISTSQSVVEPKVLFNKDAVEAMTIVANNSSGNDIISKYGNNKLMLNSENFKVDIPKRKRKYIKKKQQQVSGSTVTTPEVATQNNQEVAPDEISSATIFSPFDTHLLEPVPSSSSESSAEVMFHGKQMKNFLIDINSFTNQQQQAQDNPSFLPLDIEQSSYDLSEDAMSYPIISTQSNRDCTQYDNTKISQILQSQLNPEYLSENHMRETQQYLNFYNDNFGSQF
Assay: PBM E-score (8-mer binding enrichment) (E-score (-0.5 to 0.5)); higher = stronger / more preferred TF binding; most listed sequences are background and not binding sites
Conditions: protein concentration: 200 nM; construct: GST-full length
Method: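 Universal 'all 10-mer' protein binding microarrays (Agilent AMADID 015681) probed with GST-tagged S. cerevisiae TFs (full-length or DBD) made by in vitro transcription/translation (PURExpress), about 100-200 nM. Bound TF was detected with fluorescent anti-GST. Each ungapped 8-mer (which stands for itself and its reverse complement) is scored by the PBM enrichment score (E-score), a modified Wilcoxon-Mann-Whitney statistic from -0.5 to +0.5, computed with the Universal PBM Analysis Suite. Scale: above 0.35 generally sequence-specific binding.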

| Sequence | PBM E-score |
| --- | --- |
| ACGACACA | 0.163 |
| CTACCAGA | -0.0299 |
| ATAGCTCG | -0.0254 |
| GAGTGAGA | -0.00238 |
| AGTTGGGA | -0.114 |
| ATAGCCAT | -0.0256 |
| GCGGCCTA | 0.00545 |
| CTTTCACA | 0.176 |
| AAAATTAA | 0.0635 |
| CATGCCAC | 0.0306 |
| AACAAGAG | -0.104 |
| AGCGGTCC | -0.159 |
| AATGCCTG | 0.0179 |
| CTAAGGGA | -0.185 |
| TACGTGAA | 0.0531 |
| CTACTCAG | -0.145 |
| AAAGCCGG | 0.135 |
| GAACTACA | -0.0336 |
| GTGATCCA | -0.179 |
| AGACATAT | -0.00989 |
| CACTCGTC | -0.0386 |
| TATCGACA | 0.134 |
| ACAAGTCT | -0.16 |
| TATCGCCA | 0.23 |
| CATCACAA | 0.123 |

| Sequence | PBM E-score |
| --- | --- |
| CCCGACGG | -0.00055 |
| ATAAGTTC | -0.0171 |
| GCCCTTAA | -0.0909 |
| GAAGGGTC | -0.175 |
| GGGAGCCA | -0.214 |
| AGATAGTA | 0.0718 |
| AGCGGCGC | 0.452 |
| CGACATCA | 0.0508 |
| GAATAACA | 0.166 |
| ATCAGTCA | -0.0158 |
| ATGAACTC | -0.186 |
| CTCTTAGC | 0.0466 |
| CAGTGCCA | -0.0624 |
| AGGTTTGG | -0.105 |
| ACAAGTCC | -0.178 |
| ATCTAGAT | -0.0643 |
| ACCGGAGT | -0.00772 |
| GGCTTTAC | 0.212 |
| GTGTACAA | 0.17 |
| AAATTGCG | 0.0941 |
| AATAGACA | -0.11 |
| AGGAGAAA | -0.21 |
| CTCTATGA | -0.0121 |
| GACCACTA | -0.158 |
| GAACGGTC | -0.0534 |

| Sequence | PBM E-score |
| --- | --- |
| TCTTTTCA | 0.0882 |
| AAGCCATA | -0.072 |
| ACGCTCCC | -0.239 |
| AACTAATC | 0.0053 |
| GATTAAGA | 0.102 |
| GGATCAGA | -0.138 |
| AATACCAA | 0.0583 |
| CTATGTAC | -0.182 |
| GAGACGGC | 0.411 |
| CGGCACCA | 0.462 |
| GAAGCTTA | -0.00959 |
| AACTGACA | 0.043 |
| AGGAAAAT | -0.119 |
| ATTACCAC | 0.0153 |
| AATATATC | 0.27 |
| CACCGTCA | 0.0243 |
| AGATTGCG | 0.0474 |
| GCGCGCTA | 0.113 |
| GTATCTCA | 0.14 |
| GGTCGAAC | -0.0638 |
| GGTAGTAA | -0.236 |
| AAGGTCGA | -0.106 |
| GCCGTAAA | 0.369 |
| GCCATGCA | 0.194 |
| ATTCTTTA | 0.0763 |

| Sequence | PBM E-score |
| --- | --- |
| CCGGGGCG | -0.0988 |
| CAATCGTG | -0.0536 |
| CATCCACG | 0.0537 |
| TATCCGGA | 0.0774 |
| CCACAACG | -0.0392 |
| GGAGAAAA | 0.00747 |
| TCATCTAA | 0.0913 |
| AGATGACA | -0.0294 |
| AATCAGAC | 0.0846 |
| CAGAGCTG | -0.147 |
| CTGGGAAA | 0.0002 |
| AGTCATAA | -0.0349 |
| TCAGAAGA | -0.204 |
| ACTAGTTA | 0.0825 |
| ACGGAACG | 0.142 |
| CCTAATAC | 0.0462 |
| GTCTAGTA | -0.0452 |
| ATGGCTGC | 0.0206 |
| ACGACCGC | -0.158 |
| CAAATAGC | 0.0889 |
| CTCCTGTA | 0.0369 |
| CAGTGGCC | -0.167 |
| CCCCTTGC | -0.213 |
| CGCAAACA | 0.109 |
| CTTATAAA | 0.115 |

| Sequence | PBM E-score |
| --- | --- |
| GTTTTTTA | 0.0825 |
| ACGCCTGG | -0.0577 |
| AGCTTCAT | -0.0411 |
| CCATATCA | 0.0495 |
| CGACCCGC | 0.0115 |
| CATAATAG | 0.221 |
| CGGGCAAC | -0.143 |
| GTACCACA | 0.121 |
| AAGCGAAT | 0.0604 |
| ATGCACCA | -0.0872 |
| AACTTTAC | -0.019 |
| CACTCGGC | 0.28 |
| AACTACTC | 0.107 |
| CCTCGGGA | -0.121 |
| AGTCTTTC | -0.208 |
| CCGGTAGG | 0.0318 |
| GCTTCTCA | -0.206 |
| ATAAATGA | 0.0145 |
| CGCCTTTC | 0.354 |
| CGCGTCCA | 0.132 |
| GGATACCC | -0.163 |
| CCGAGTCC | -0.0324 |
| AAGATGCA | -0.0477 |
| AGACGAAA | 0.189 |
| CCAGCGCC | 0.235 |

| Sequence | PBM E-score |
| --- | --- |
| GATCCCGC | -0.0668 |
| CGAGATCG | -0.0492 |
| AATCCCAT | -0.191 |
| TAATTGAA | 0.107 |
| ACGGTACC | 0.118 |
| ATGTACAA | 0.115 |
| ACTGCCAT | 0.0701 |
| TAACCAGA | -0.058 |
| CGCTCCTC | -0.144 |
| CTCCAGTA | -0.00483 |
| CTATGCAA | -0.0966 |
| ACAATATA | 0.18 |
| AGGCTGTA | 0.0388 |
| ACAAAGAT | 0.149 |
| CGTACCCC | -0.0145 |
| GTCGCAAA | 0.155 |
| GGGAGGCA | 0.00612 |
| ATCCTCTC | -0.11 |
| GCACATCC | -0.023 |
| CGTTCCGA | 0.0281 |
| ACCGGGAT | -0.384 |
| ACCCTACG | -0.112 |
| AGTCATAC | -0.102 |
| CGACCAGC | -0.133 |
| CCACAACA | 0.0345 |

| Sequence | PBM E-score |
| --- | --- |
| ACATGGAA | -0.0118 |
| ACACCGGT | -0.141 |
| GAGTCACA | -0.0824 |
| AATTCCTA | 0.0887 |
| CTAGGCAG | -0.11 |
| ACATTATC | 0.0248 |
| AAGCTCTC | -0.133 |
| AGTGGGGA | -0.203 |
| TCCTACGA | -0.249 |
| TTCCCGAA | -0.00196 |
| CCCGTATA | 0.12 |
| ATGTCTCA | -0.133 |
| ATATATAA | 0.284 |
| CCTTTTAG | -0.113 |
| AAATTGAC | 0.065 |
| ACGCTATA | -0.0998 |
| ACTGTGTA | -0.0229 |
| ATATTTTG | 0.0588 |
| AGTTACTC | 0.107 |
| CATAGGGA | 0.0911 |
| CCCCCTCA | -0.365 |
| ACAAAGAC | 0.0546 |
| GCTGTGTA | 0.0044 |
| CTCTAAGC | 0.0166 |
| GCACGTAC | 0.141 |

| Sequence | PBM E-score |
| --- | --- |
| ACACTTTC | -0.148 |
| ATACAAAA | 0.193 |
| ATGCGAGC | -0.0578 |
| CCACACTC | -0.185 |
| ACTCTGCT | -0.293 |
| ACGCAGTG | -0.0766 |
| ACCCCAAC | -0.0995 |
| ACGTGGAT | 0.0437 |
| CATCAGTC | -0.0756 |
| ACCTAGGC | -0.245 |
| CCGAATAG | -0.0446 |
| GTAGTGAA | 0.0459 |
| TAGGCTAA | -0.0054 |
| CGCTCCGC | 0.242 |
| CCAGCACA | -0.245 |
| CCCACATA | -0.342 |
| ATTTCTAG | 0.109 |
| ACCCAGGA | -0.132 |
| CAGTTCAA | -0.0159 |
| AACCAAAA | 0.066 |
| GAACAAAA | 0.252 |
| CACTATCA | 0.0484 |
| TCTTTGAA | 0.0181 |
| AGAGGTAT | 0.184 |
| ATCCTTTA | 0.13 |

| Sequence | PBM E-score |
| --- | --- |
| ATTTATGA | 0.163 |
| GTGTATGA | 0.0678 |
| ATGATCGG | -0.0283 |
| ACGGTTAA | 0.0599 |
| CACAAGTG | 0.0151 |
| AATCTGCA | -0.112 |
| CACGCGAA | -0.112 |
| ACAGGCGC | 0.116 |
| AGCAGAAG | -0.0798 |
| GAAGGATA | -0.186 |
| GTGTAGGA | -0.00643 |
| AGATTGAC | -0.0239 |
| GACGTAAC | -0.129 |
| AAATTATC | 0.213 |
| CGTTTGAC | 0.0103 |
| CGAGTCAC | -0.0751 |
| CCGCGAGA | -0.0951 |
| GCGGGTTA | 0.18 |
| GAGCGCAA | -0.277 |

From the supplement of paper PMC3334620
